Test results as given in PubChem BioAssay AID652104 (National Center for Advancing Translational Sciences (NCATS), 2013).
The campaign covered roughly 410,000 compounds. About 7,200 (1.8%) were called active. Inconclusive results, whose numbers are uncertain, are shown with a selection of clear calls. Calls come from the whole dose curve; as a rule, active = well fitted activation curve with a large enough effect; inconclusive = small, poorly fitted or top-dose-only effect, or another doubt; inactive = no such curve, though single readings can be large or run the other way. Potencies of inconclusive entries are left out as doubtful fits.

Assay: qHTS of TDP-43 Inhibitors; note: nearly all actives have a fitted effect of over 50% in size; for growth rescue (activation): % of control where 0% means no effect
Conditions: TDP-43 expressing yeast growth rescue, BacTiter-Glo, 24 h; growth rescue (activation): at 46.1 µM (top of the series) unless noted
How it was run: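 Yeast cells expressing TDP-43 under galactose induction are exposed to compounds for 24 hr at 30 deg C. BacTiter-Glo luminescence measures growth, so protective compounds score as activators.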
Potency is the fitted concentration of half-maximal effect; tags give direction and shape of the fitted curve.

| Structure (SMILES) | growth rescue (activation) | Potency |
| --- | --- | --- |
| COc1ccc(C(=O)COC(=O)/C=C/c2ccccc2[N+](=O)[O-])cc1 | inactive: 19.2% | – |
| O=C(CS(=O)c1cccc(C(F)(F)F)c1)Nc1ccc(Cl)cc1Cl (stereo not given) | – | inconclusive [activator, single point] |
| O=S(=O)(NCCc1csc(-c2cccnc2)n1)c1cc(F)ccc1F | – | inconclusive [activator, single point] |
| CCOC(=O)c1sc2nc(NC(=O)C(C)(C)C)sc2c1C | – | inconclusive [activator, full curve, poor fit] |
| COc1ccc(NC(=O)C2Cc3c(-c4ccc(Cl)cc4)ccnc3O2)cc1 (stereo not given) | – | active: 14.1 µM |
| Fc1ccc(Cn2cc(C(=S)N3CCOCC3)c3ccccc32)cc1 | – | inconclusive [activator, single point] |
| Cc1ccc(C2N=C(N)Nc3nc4ccccc4n32)cc1 (stereo not given) | – | inconclusive [activator, full curve, poor fit] |
| COc1ccc2oc(C(=O)OCC(=O)N3C(C)CCCC3C)c(C)c2c1 (stereo not given) | inactive: -19.2% | – |
| O=C1CC(C(=O)N2CCCc3ccccc32)CN1c1ccc(Cl)cc1 (stereo not given) | – | inconclusive [activator, single point] |
| O=S(=O)(NCc1ccccc1)c1ccc(Br)c2nsnc12 | – | inconclusive [activator, single point] |
| COc1cccc2sc3ccc(C#CC4(O)CCCCC4)cc3c(=O)c12 | – | active: 15.8 µM |
| CCC1CCc2nc3sc(C(=O)Nc4cccc(F)c4)c(N)c3cc2C1 (stereo not given) | inactive: 3.71% | – |
| CCOCCn1c(SCc2ccc(C)cc2)nc2c1c(=O)[nH]c(=O)n2C | – | inconclusive [activator, partial curve] |
| COc1cccc(NC(=O)CSc2nc(C)c(Cc3ccccc3)c(=O)[nH]2)c1 | – | inconclusive [activator, full curve] |
| COc1ccc(C(O)c2nc(-c3cc(F)cc(F)c3)cs2)cc1 (stereo not given) | – | active: 35.5 µM |
| O=C(Nc1nnc(S(=O)(=O)N2CCOCC2)s1)c1ccc(Cl)cc1 | – | inconclusive [activator, full curve, poor fit] |
| COc1ccccc1NCc1ccc([N+](=O)[O-])s1 | – | inconclusive [activator, partial curve] |
| CCOC(=O)c1c(C)oc(NC(=O)COc2ccc(Cl)cc2C)c1C#N | – | inconclusive [activator, full curve] |
| CSc1c(SCc2ccccc2)cnn(-c2ccccc2)c1=O | – | inconclusive [activator, partial curve] |
| CCCn1c(CN(Cc2ccccc2)Cc2ccccc2)nc2c1c(=O)n(C)c(=O)n2C | – | inconclusive [activator, single point] |
| O=C(Nc1cccc(C(=O)O)c1)/C(=C\c1ccccc1)NC(=O)c1ccc(Br)o1 | inactive: -9.24% | – |
| Cc1cc(C)c(S(=O)(=O)Nc2cccc3nsnc23)c(C)c1 | – | inconclusive [activator, single point] |
| COc1ccc(NC(=O)c2cc(-c3cc(F)ccc3OC)n[nH]2)c(OC)c1 | – | active: 20 µM |

| Structure (SMILES) | growth rescue (activation) | Potency |
| --- | --- | --- |
| COc1ccc(-c2nc(N)nc(C)c2-c2ccc(Cl)cc2)c(O)c1 | – | inconclusive [activator, single point] |
| O=C(Nc1nc(-c2ccccn2)cs1)c1ncc(Cl)c(Cl)c1Cl | – | active: 3.55 µM |
| CC1Cc2ccccc2N1C(=O)C1CCCN(S(=O)(=O)c2cccc3nsnc23)C1 (stereo not given) | – | inconclusive [activator, single point] |
| CC(C)C[C@@H](CN)NC(=O)c1nc[nH]c1C(=O)N[C@@H](CC(C)C)C(=O)CNC[C@H](C)NC(=O)c1nc[nH]c1C(=O)N[C@@H](CC(=O)O)C(=O)O | inactive: 9.45% | – |
| CC1(C)CC(=O)C(C=NCCN2CCN(C(=S)NC3CCCCC3)CC2)=C(O)C1 | – | inconclusive [activator, partial curve] |
| CC(=O)c1c(COC(=O)c2ccc(F)cc2)nc2ccccc2[n+]1[O-] | – | inconclusive [activator, partial curve] |
| CCOC(=O)c1cc2c(C)n(-c3ccc(C)cc3)c(C)c2ccc1=O | – | active: 20 µM |
| COc1ccc(NC(=O)c2c(NCc3cccc(F)c3)sc3c2CCC3)c(OC)c1 | inactive: 13.3% | – |
| COc1ccccc1C(=O)Nc1nnc(S(=O)(=O)N2CCOCC2)s1 | – | inconclusive [activator, partial curve] |
| COc1ccc(OC)c(CNC(=O)c2c(C)oc3ncn(CC(C)C)c(=O)c23)c1 | – | inconclusive [activator, partial curve] |
| O=C1CC(=C2c3ccccc3-c3ccccc32)C(=O)N1CCN1CCN(c2ccccc2)CC1 | inactive: -28.6% | – |
| CCc1ccc(-c2ccc(SCc3ccccn3)nn2)cc1 | – | inconclusive [activator, partial curve] |
| CC(C)(C)NC(=S)N/N=C/c1cc(Br)c(O)c(Br)c1 | – | inconclusive [activator, partial curve] |
| O=C(C(Br)=Cc1ccccc1)c1ccccc1 | inconclusive: -64.2% [activator] | – |
| CNc1nc(-c2ccccc2)c2sccc2n1 | – | inconclusive [activator, single point] |
| Cc1nc2ccc(NS(=O)(=O)c3c(C)c(C)cc(C)c3C)cc2s1 | – | inconclusive [activator, single point] |
| Nc1cccc(C(=O)Nc2ccc(N)cc2Cl)c1 | inactive: -16.1% | – |
| CC(=O)N1CCN(c2nc3ccc([N+](=O)[O-])cc3s2)CC1 | – | inconclusive [activator, partial curve] |
| CCSc1ccccc1C(=O)N1CCN(c2ccc([N+](=O)[O-])cc2)CC1 | – | inconclusive [activator, single point] |
| Cc1cccc(Nc2nc(-c3ccccn3)cs2)n1 | – | inconclusive [activator, single point] |
| O=c1c2c(n3cnnc3n1-c1ccccc1)-c1ccccc1CC21CCCCC1 | inactive: 24.7% | – |
| COc1ccc(OCc2cc(C(=O)NCc3cccc(C)n3)no2)c(Cl)c1 | – | inconclusive [activator, partial curve] |
